# Structures can show the parent of a compound that is named as a salt. Some of the results follow. Most values come without repeats; read them as rough.
# Experiments:
# [1] = tested on: OVCAR4; assay: log2 surviving fraction (library drug vs vehicle, or drug + carboplatin vs carboplatin alone; relative to plate median); ovarian cancer lines: OVCAR4 is platinum-sensitive and Ov4Carbo platinum-resistant; higher = more cell survival; details: library drug concentration 10 µM, 7 days
# [2] = tested on: Ov4Carbo; assay: as above; details: library drug concentration 10 µM, 7 days
Structure (SMILES),log2 surviving fraction ([1]; carboplatin co-treatment 0 µM),log2 surviving fraction ([1]; carboplatin co-treatment 5 µM),log2 surviving fraction ([2]; carboplatin co-treatment 0 µM),log2 surviving fraction ([2]; carboplatin co-treatment 5 µM)
CCOc1ccc2nc3cc(N)ccc3c(N)c2c1 [Ethacridine lactate monohydrate],-8.53,-6.99,-7.61,-7.14
O=P(O)(O)C(O)(Cc1cccnc1)P(=O)(O)O [Risedronate sodium],-3.99,1.43,1.24,0.592
OCCOCCN1CCN(C2=Nc3ccccc3Sc3ccccc32)CC1 [Quetiapine fumarate (Seroquel)],-2.69,-2.69,0.0314,-0.293
N[C@@H]1CCCCN(c2c(F)cc3c(=O)c(C(=O)O)cn(C4CC4)c3c2Cl)C1 [Besifloxacin HCl (Besivance)],0.723,-0.401,-0.147,-1.05
Cc1cccc(C(C)c2c[nH]cn2)c1C (stereo unspecified) [Medetomidine HCl],0.691,0.512,1.12,0.0749
O=C(O)CCNC(=O)c1ccccc1 [Betamipron],0.45,-0.207,-0.307,-0.724
Cc1ncc(C[n+]2csc(CCO)c2C)c(N)n1 [Thiamine HCl (Vitamin B1)],-0.412,-0.347,0.531,0.486
CCCC(CCC)C(=O)O [Divalproex sodium],0.0124,-0.147,0.612,0.291
NC(=O)C(c1ccccc1)(c1ccccc1)[C@@H]1CCN(CCc2ccc3c(c2)CCO3)C1 [Darifenacin HBr],-2.01,-1.82,-3.83,-2.44
CC(NCCc1ccc(O)cc1)C(O)c1ccc(O)cc1 (stereo unspecified) [Ritodrine hydrochloride (Yutopar)],-0.39,-0.614,-0.285,0.0177
CC1(C)O[C@@H]2[C@@H](CO[C@@]3(COS(N)(=O)=O)OC(C)(C)O[C@@H]23)O1 [Topiramate],-0.975,-0.783,1.74,-0.574
"CCOC(=O)C1=C(C)NC(C)=C(C(=O)OCC)C1c1ccccc1/C=C/C(=O)OC(C)(C)C [Lacidipine (Lacipil, Motens)]",-0.0999,-0.747,0.564,-1.86
CCCCCCCCCCOc1cc2c(O)c(C(=O)OCC)cnc2cc1OCC [Decoquinate],1,0.895,0.877,0.271
CCc1nc(N)nc(N)c1-c1ccc(Cl)cc1 [Pyrimethamine],-1.12,-1.22,-0.598,-9.15
OCC(CO)N[C@H]1C[C@](O)(CO)[C@@H](O)[C@H](O)[C@H]1O [Voglibose],1.07,0.433,0.642,0.525
CCCCC(=O)N(Cc1ccc(-c2ccccc2-c2nnn[nH]2)cc1)[C@H](C(=O)O)C(C)C [Valsartan (Diovan)],0.524,-0.13,0.433,0.8
CCCCc1oc2ccc(NS(C)(=O)=O)cc2c1C(=O)c1ccc(OCCCN(CCCC)CCCC)cc1 [Dronedarone HCl (Multaq)],-7.76,-6.39,-6.88,-6.9
COc1nc(C)nc(Cl)c1NC1=NCCN1 [Moxonidine],0.341,0.272,0.512,0.358
CC(C)[C@H](N)C(=O)OCC(CO)OCn1cnc2c(=O)nc(N)[nH]c21 (stereo partly specified) [valganciclovir hydrochloride],-0.135,-0.282,0.179,0.752
CC(C)c1c(CN(C)C(C)Cc2ccccc2)n(C)n(-c2ccccc2)c1=O (stereo unspecified) [Famprofazone],0.201,0.0261,0.386,-0.798
CCCC(CCC)C(=O)O[C@H]1C[C@H]2CC[C@@H](C1)[N+]2(C)C [Anisotropine Methylbromide],0.678,-0.256,0.223,0.36
[O-][n+]1ccccc1[S-].[O-][n+]1ccccc1[S-].[Zn+2] [Pyrithione zinc],-7.85,-6.9,-7.32,-6.88
NC[C@H](O)c1ccc(O)c(O)c1 [Noradrenaline bitartrate monohydrate (Levophed)],-1.14,-0.484,0.732,-0.218
O=C(O)Cc1ccccc1Nc1c(Cl)cccc1Cl [Diclofenac Diethylamine],0.377,0.241,0.274,0.76
CCN(CCCc1ccccc1)CCCc1ccccc1 [Alverine Citrate],0.93,0.421,0.682,-0.459
CN1CCN(C2=Nc3cc(Cl)ccc3Nc3ccccc32)CC1 [Clozapine (Clozaril)],0.413,0.0864,-0.168,0.12
CN(C)CCC(c1ccc(Cl)cc1)c1ccccn1 (stereo unspecified) [Chlorpheniramine Maleate],-0.234,0.261,-0.928,0.0721

Structure (SMILES),log2 surviving fraction ([1]; carboplatin co-treatment 0 µM),log2 surviving fraction ([1]; carboplatin co-treatment 5 µM),log2 surviving fraction ([2]; carboplatin co-treatment 0 µM),log2 surviving fraction ([2]; carboplatin co-treatment 5 µM)
CC(=O)O[C@]1(C(C)=O)CC[C@H]2[C@@H]3C=C(C)C4=CC(=O)CC[C@]4(C)[C@H]3CC[C@@]21C [Megestrol Acetate],-0.0758,-6.43,-1.51,0.381
N=C(N)NCCN1CCCCCCC1 [Guanethidine Sulfate],-0.74,-0.238,-0.627,-1.57
CCCCOc1ccc(CC(=O)NO)cc1 [Bufexamac],-0.384,-0.954,-1.23,-0.516
"CCCCC1C(=O)N(c2ccccc2)N(c2ccccc2)C1=O [Phenylbutazone (Butazolidin, Butatron)]",0.528,-0.417,-0.0394,0.44
CC1=NN(c2ccccc2)C(=O)C1 [Edaravone (MCI-186)],0.696,-1.69,0.0776,0.235
Clc1ccc(COC(Cn2ccnc2)c2ccc(Cl)cc2Cl)c(Cl)c1 (stereo unspecified) [Miconazole nitrate],-2.63,-2.34,-6.94,-1.05
O=C(O)c1cn(C2CC2)c2cc(N3CCNCC3)c(F)cc2c1=O [Ciprofloxacin (Cipro)],0.137,-0.257,-0.175,0.0352
CCCCc1ncc(/C=C(\Cc2cccs2)C(=O)O)n1Cc1ccc(C(=O)O)cc1 [Eprosartan Mesylate],0.0247,-0.196,0.0952,-0.232
CC(C[N+](C)(C)C)OC(N)=O (stereo unspecified) [Bethanechol chloride],0.765,0.811,0.574,0.592
CC(C(=O)O)c1ccc2c(c1)CC(=O)c1ccccc1S2 (stereo unspecified) [Zaltoprofen],1.1,-0.0566,-0.0721,-0.047
COc1cc2nc(N(C)CCCNC(=O)C3CCCO3)nc(N)c2cc1OC (stereo unspecified) [Alfuzosin hydrochloride (Uroxatral)],0.473,-1.96,0.177,-0.308
CC[C@H](C)[C@H](N)C1=N[C@H](C(=O)N[C@@H](CC(C)C)C(=O)N[C@H](CCC(=O)O)C(=O)N[C@H](C(=O)N[C@H]2CCCCNC(=O)[C@H](CC(N)=O)NC(=O)[C@@H](CC(=O)O)NC(=O)[C@H](Cc3cnc[nH]3)NC(=O)[C@@H](Cc3ccccc3)NC(=O)[C@H]([C@@H](C)CC)NC(=O)[C@@H](CCCN)NC2=O)[C@@H](C)CC)CS1 [Bacitracin],1.4,1.01,0.945,0.726
Cc1cc2nc3c(=O)[nH]c(=O)nc-3n(C[C@H](O)[C@H](O)[C@H](O)CO)c2cc1C [Riboflavin (Vitamin B2)],1.02,0.371,-0.123,-0.0347
O=NO [Sodium nitrite],-0.701,-0.258,-0.606,-1.11
CCCCC(C)(O)C/C=C/[C@H]1[C@H](O)CC(=O)[C@@H]1CCCCCCC(=O)OC (mixture of isomers) [Misoprostol],-1,1.37,-0.512,-2.39
CN[C@H](CC(C)C)C(=O)N[C@H]1C(=O)N[C@@H](CC(N)=O)C(=O)N[C@H]2C(=O)N[C@H]3C(=O)N[C@H](C(=O)N[C@H](C(=O)O)c4cc(O)cc(O)c4-c4cc3ccc4O)[C@H](O)c3ccc(c(Cl)c3)Oc3cc2cc(c3O[C@@H]2O[C@H](CO)[C@@H](O)[C@H](O)[C@H]2O[C@H]2C[C@](C)(N)[C@H](O)[C@H](C)O2)Oc2ccc(cc2Cl)[C@H]1O [Vancomycin HCl (Vancocin)],-0.0355,0.604,0.548,0.318
CN(Cc1ccc(C(C)(C)C)cc1)Cc1cccc2ccccc12 [Butenafine HCl],-0.239,-0.065,-0.91,-0.6
CC1=C(CC(=O)O)c2cc(F)ccc2/C1=C\c1ccc([S+](C)[O-])cc1 (stereo unspecified) [Sulindac (Clinoril)],0.0404,0.935,0.471,-1.26
O=c1[nH]cnc2c1ncn2[C@H]1CC[C@@H](CO)O1 [Didanosine (Videx)],-3.22,-2.01,-0.324,-0.145
Cc1ncc([N+](=O)[O-])n1CCO [Metronidazole (Flagyl)],-0.262,0.113,0.324,0.239
Cc1cccc(C)c1NC(=O)C1CCCCN1C (stereo unspecified) [Mepivacaine HCl],0.142,0.121,0.196,0.645
CO/N=C(\C(=O)N[C@@H]1C(=O)N2C(C(=O)OCOC(=O)C(C)(C)C)=C(/C=C\c3scnc3C)CS[C@H]12)c1csc(N)n1 [Cefditoren pivoxil],1.26,1.09,0.847,0.318
OC(CCN1CCCC1)(c1ccccc1)C1CCCCC1 (stereo unspecified) [Procyclidine HCl],-1.08,-0.803,-1.92,-0.857
CC(=O)OCC(=O)[C@@]1(O)CC[C@H]2[C@@H]3CCC4=CC(=O)C=C[C@]4(C)[C@H]3[C@@H](O)C[C@@]21C [Prednisolone acetate (Omnipred)],0.69,0.272,2.15,1.21
CC(C)Cc1ccc(C(C)C(=O)O)cc1 (stereo unspecified) [Ibuprofen Lysine (NeoProfen)],0.846,1.04,0.25,0.0215
Nc1nc(=O)[nH]cc1F [Flucytosine (Ancobon)],0.323,0.523,0.575,-0.0682
O=C(O)/C=C/c1ccc(Cn2ccnc2)cc1 [Ozagrel HCl],-0.121,0.907,1.11,1.17

# Reference: the supplement of paper PMC8047034
